We go through one substance from PMC5193403.

Chains of the proteins cited; added tags and fusions are not shown.
UniProt P08151: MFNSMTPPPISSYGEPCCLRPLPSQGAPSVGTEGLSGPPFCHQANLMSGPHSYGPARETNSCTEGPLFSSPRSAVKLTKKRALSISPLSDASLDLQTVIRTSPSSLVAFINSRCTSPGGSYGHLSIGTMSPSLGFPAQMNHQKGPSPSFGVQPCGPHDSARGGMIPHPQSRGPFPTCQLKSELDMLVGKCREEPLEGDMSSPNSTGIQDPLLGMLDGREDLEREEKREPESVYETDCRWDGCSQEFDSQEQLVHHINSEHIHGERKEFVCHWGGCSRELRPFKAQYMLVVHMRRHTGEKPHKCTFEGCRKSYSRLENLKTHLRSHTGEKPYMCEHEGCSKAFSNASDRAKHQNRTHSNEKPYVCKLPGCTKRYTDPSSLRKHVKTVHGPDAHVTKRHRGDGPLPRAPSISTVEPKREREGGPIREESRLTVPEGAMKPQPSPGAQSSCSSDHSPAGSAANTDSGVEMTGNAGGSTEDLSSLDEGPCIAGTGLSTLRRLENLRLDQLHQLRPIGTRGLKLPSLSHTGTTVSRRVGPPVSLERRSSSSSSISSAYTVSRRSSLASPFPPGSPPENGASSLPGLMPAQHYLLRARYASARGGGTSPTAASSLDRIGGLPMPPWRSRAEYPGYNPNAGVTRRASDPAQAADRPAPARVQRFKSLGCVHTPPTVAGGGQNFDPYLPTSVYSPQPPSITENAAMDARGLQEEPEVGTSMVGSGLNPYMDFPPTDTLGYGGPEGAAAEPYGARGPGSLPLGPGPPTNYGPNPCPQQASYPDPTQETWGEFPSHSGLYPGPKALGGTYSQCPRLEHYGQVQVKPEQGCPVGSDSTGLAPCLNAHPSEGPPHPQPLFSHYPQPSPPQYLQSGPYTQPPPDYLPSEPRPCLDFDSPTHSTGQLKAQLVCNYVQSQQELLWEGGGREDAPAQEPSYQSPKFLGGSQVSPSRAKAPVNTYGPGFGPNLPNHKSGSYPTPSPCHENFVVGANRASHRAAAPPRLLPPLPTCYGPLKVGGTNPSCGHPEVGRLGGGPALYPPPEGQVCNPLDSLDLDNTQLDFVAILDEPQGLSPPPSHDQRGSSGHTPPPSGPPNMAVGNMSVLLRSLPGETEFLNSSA

Common to all, as to assay: co-IP; HEK-293T cells co-transfected with equimolar tandem-epitope-tagged SUFU variant and GFP-GLI1; SUFU precipitated with anti-HA magnetic beads, 4 °C overnight; blots for GLI1, GFP and HA
One test deals with T1, SUFU-TAP A379D (human) (UniProt Q9UMX1).
T1 sequence: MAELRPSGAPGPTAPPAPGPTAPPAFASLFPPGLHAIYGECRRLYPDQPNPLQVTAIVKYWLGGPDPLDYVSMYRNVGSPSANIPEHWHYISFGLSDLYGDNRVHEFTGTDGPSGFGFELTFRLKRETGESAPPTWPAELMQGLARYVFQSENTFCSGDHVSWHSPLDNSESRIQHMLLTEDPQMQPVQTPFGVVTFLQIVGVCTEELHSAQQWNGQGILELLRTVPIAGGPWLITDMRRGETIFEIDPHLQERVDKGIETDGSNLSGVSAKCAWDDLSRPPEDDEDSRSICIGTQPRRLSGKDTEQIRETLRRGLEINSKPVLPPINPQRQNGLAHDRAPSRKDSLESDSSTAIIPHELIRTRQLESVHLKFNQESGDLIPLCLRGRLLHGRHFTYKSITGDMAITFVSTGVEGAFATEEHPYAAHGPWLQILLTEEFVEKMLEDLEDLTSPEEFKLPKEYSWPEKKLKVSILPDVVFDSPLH

Another test concerns the target T2, SUFU-TAP 464X (human) (UniProt Q9UMX1).
T2 sequence: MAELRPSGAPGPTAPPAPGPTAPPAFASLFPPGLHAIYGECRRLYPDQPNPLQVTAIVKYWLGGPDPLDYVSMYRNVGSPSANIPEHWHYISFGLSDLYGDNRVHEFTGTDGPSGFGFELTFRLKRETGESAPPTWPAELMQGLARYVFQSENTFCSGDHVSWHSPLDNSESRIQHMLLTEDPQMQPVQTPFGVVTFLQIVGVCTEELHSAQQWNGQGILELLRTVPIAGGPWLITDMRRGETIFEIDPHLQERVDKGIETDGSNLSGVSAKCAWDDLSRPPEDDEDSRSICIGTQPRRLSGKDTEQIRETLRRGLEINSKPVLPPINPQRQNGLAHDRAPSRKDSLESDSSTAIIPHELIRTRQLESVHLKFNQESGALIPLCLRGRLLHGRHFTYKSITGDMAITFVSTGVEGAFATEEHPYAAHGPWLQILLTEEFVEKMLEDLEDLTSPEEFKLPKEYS

The target in a further test is T3, SUFU-TAP P191S (human) (UniProt Q9UMX1).
T3 sequence: T1 sequence with P191S, D379A

For test [1], the target named is T4, SUFU-TAP wild type (human) (UniProt Q9UMX1).
T4 sequence: T1 sequence with D379A

The target of another test is T5, SUFU-TAP 146X (human) (UniProt Q9UMX1).
T5 sequence: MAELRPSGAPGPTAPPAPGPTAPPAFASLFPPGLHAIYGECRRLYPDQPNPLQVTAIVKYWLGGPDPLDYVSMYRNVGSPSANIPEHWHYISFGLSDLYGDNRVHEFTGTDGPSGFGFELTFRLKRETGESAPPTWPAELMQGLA

The target in another test is T6, SUFU-TAP G158R (human) (UniProt Q9UMX1).
T6 sequence: T1 sequence with G158R, D379A

A further test deals with T7, SUFU-TAP V478M (human) (UniProt Q9UMX1).
T7 sequence: T1 sequence with D379A, V478M

Another test has as its target T8, SUFU-TAP 199X (human) (UniProt Q9UMX1).
T8 sequence: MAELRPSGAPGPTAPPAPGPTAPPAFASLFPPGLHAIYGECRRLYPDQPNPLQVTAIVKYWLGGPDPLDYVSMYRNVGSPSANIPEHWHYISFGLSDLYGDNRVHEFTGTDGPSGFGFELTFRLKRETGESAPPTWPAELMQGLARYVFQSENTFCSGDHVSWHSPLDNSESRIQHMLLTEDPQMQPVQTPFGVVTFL

The next test deals with T9, SUFU-TAP L444S (human) (UniProt Q9UMX1).
T9 sequence: T1 sequence with D379A, L444S

Changes are numbered by the printed parent chain. These are yes or no findings as the source states them, for the method shown. Binding seen in cells or lysates may run through a third protein. Some results given as binding are weak or reduced against the parent protein; the word gives no strength.

On to GFP-GLI1 (from UniProt P08151 1-1106), for which the binding result in the test with SUFU-TAP A379D (human) is reported as “binds”; with SUFU-TAP 464X (human) it was “no binding”; in the test with SUFU-TAP P191S (human), “binds”; in [1], “binds”; with SUFU-TAP 146X (human), “no binding”; in the test with SUFU-TAP G158R (human), “binds”. In addition, the binding result with SUFU-TAP V478M (human) is reported as “binds”; in the test with SUFU-TAP 199X (human), “no binding”; with SUFU-TAP L444S (human), “binds”.
